Reference: the supplement of paper PMC11876631
± gives the standard deviation of the averaged measurements. Laboratory Escherichia coli strains with one amino-acid change in an essential protein, pooled on minimal glucose agar with carbenicillin or gentamicin at twice the control MIC (plus kanamycin and chloramphenicol for the plasmids), 48 h. Fold change of barcode share against drug-free plates; higher = less susceptible. Active = above 20 in both replicates (the paper's putatively resistant). '<' = one read or none on drug, '>' = one read or none on a drug-free plate. Shares are relative, so most strains fall below 1 when a few take over. Listed are strains with at least 15 reads on both drug-free plates, and hits; most hits rest on fewer reference reads. Replicate rank correlation about 0.5. Edits are read from barcodes.

B1: aspS F394A (protein)
chain: MRTEYCGQLRLSHVGQQVTLCGWVNRRRDLGSLIFIDMRDREGIVQVFFDPDRADALKLASELRNEFCIQVTGTVRARDEKNINRDMATGEIEVLASSLTIINRADVLPLDSNHVNTEEARLKYRYLDLRRPEMAQRLKTRAKITSLVRRFMDDHGFLDIETPMLTKATPEGARDYLVPSRVHKGKFYALPQSPQLFKQLLMMSGFDRYYQIVKCFRDEDLRADRQPEFTQIDVETSFMTAPQVREVMEALVRHLWLEVKGVDLGDFPVMTFAEAERRYGSDKPDLRNPMELTDVADLLKSVEFAVFAGPANDPKGRVAALRVPGGASLTRKQIDEYGNFVKIYGAKGLAYIKVNERAKGLEGINSPVAKFLNAEIIEDILDRTAAQDGDMIFAGADNKKIVADAMGALRLKVGKDLGLTDESKWAPLWVIDFPMFEDDGEGGLTAMHHPFTSPKDMTAAELKAAPENAVANAYDMVINGYEVGGGSVRIHNGDMQQTVFGILGINEEEQREKFGFLLDALKYGTPPHAGLAFGLDRLTMLLTGTDNIRDVIAFPKTTAAACLMTEAPSFANPTALAELSIQVVKKAENN
B2: nrdA L227D (protein)
chain: MNQNLLVTKRDGSTERINLDKIHRVLDWAAEGLHNVSISQVELRSHIQFYDGIKTSDIHETIIKAAADLISRDAPDYQYLAARLAIFHLRKKAYGQFEPPALYDHVVKMVEMGKYDNHLLEDYTEEEFKQMDTFIDHDRDMTFSYAAVKQLEGKYLVQNRVTGEIYESAQFLYILVAACLFSNYPRETRLQYVKRFYDAVSTFKISLPTPIMSGVRTPTRQFSSCVDIECGDSLDSINATSSAIVKYVSQRAGIGINAGRIRALGSPIRGGEAFHTGCIPFYKHFQTAVKSCSQGGVRGGAATLFYPMWHLEVESLLVLKNNRGVEGNRVRHMDYGVQINKLMYTRLLKGEDITLFSPSDVPGLYDAFFADQEEFERLYTKYEKDDSIRKQRVKAVELFSLMMQERASTGRIYIQNVDHCNTHSPFDPAIAPVRQSNLCLEIALPTKPLNDVNDENGEIALCTLSAFNLGAINNLDELEELAILAVRALDALLDYQDYPIPAAKRGAMGRRTLGIGVINFAYYLAKHGKRYSDGSANNLTHKTFEAIQYYLLKASNELAKEQGACPWFNETTYAKGILPIDTYKKDLDTIANEPLHYDWEALRESIKTHGLRNSTLSALMPSETSSQISNATNGIEPPRGYVSIKASKDGILRQVVPDYEHLHDAYELLWEMPGNDGYLQLVGIMQKFIDQSISANTNYDPSRFPSGKVPMQQLLKDLLTAYKFGVKTLYYQNTRDGAEDAQDDLVPSIQDDGCESGACKI
B3: obgE I332A (protein)
chain: MKFVDEASILVVAGDGGNGCVSFRREKYIPKGGPDGGDGGDGGDVWMEADENLNTLIDYRFEKSFRAERGQNGASRDCTGKRGKDVTIKVPVGTRVIDQGTGETMGDMTKHGQRLLVAKGGWHGLGNTRFKSSVNRTPRQKTNGTPGDKRELLLELMLLADVGMLGMPNAGKSTFIRAVSAAKPKVADYPFTTLVPSLGVVRMDNEKSFVVADIPGLIEGAAEGAGLGIRFLKHLERCRVLLHLIDIDPIDGTDPVENARIIISELEKYSQDLATKPRWLVFNKIDLLDKVEAEEKAKAIAEALGWEDKYYLISAASGLGVKDLCWDVMTFAIENPVVQAEEAKQPEKVEFMWDDYHRQQLEEIAEEDDEDWDDDWDEDDEEGVEFIYKR
B4: obgE I332Q (protein)
chain: MKFVDEASILVVAGDGGNGCVSFRREKYIPKGGPDGGDGGDGGDVWMEADENLNTLIDYRFEKSFRAERGQNGASRDCTGKRGKDVTIKVPVGTRVIDQGTGETMGDMTKHGQRLLVAKGGWHGLGNTRFKSSVNRTPRQKTNGTPGDKRELLLELMLLADVGMLGMPNAGKSTFIRAVSAAKPKVADYPFTTLVPSLGVVRMDNEKSFVVADIPGLIEGAAEGAGLGIRFLKHLERCRVLLHLIDIDPIDGTDPVENARIIISELEKYSQDLATKPRWLVFNKIDLLDKVEAEEKAKAIAEALGWEDKYYLISAASGLGVKDLCWDVMTFQIENPVVQAEEAKQPEKVEFMWDDYHRQQLEEIAEEDDEDWDDDWDEDDEEGVEFIYKR
B5: obgE I332W (protein)
chain: MKFVDEASILVVAGDGGNGCVSFRREKYIPKGGPDGGDGGDGGDVWMEADENLNTLIDYRFEKSFRAERGQNGASRDCTGKRGKDVTIKVPVGTRVIDQGTGETMGDMTKHGQRLLVAKGGWHGLGNTRFKSSVNRTPRQKTNGTPGDKRELLLELMLLADVGMLGMPNAGKSTFIRAVSAAKPKVADYPFTTLVPSLGVVRMDNEKSFVVADIPGLIEGAAEGAGLGIRFLKHLERCRVLLHLIDIDPIDGTDPVENARIIISELEKYSQDLATKPRWLVFNKIDLLDKVEAEEKAKAIAEALGWEDKYYLISAASGLGVKDLCWDVMTFWIENPVVQAEEAKQPEKVEFMWDDYHRQQLEEIAEEDDEDWDDDWDEDDEEGVEFIYKR

Target: Escherichia coli (laboratory strain)
Experiment: barcode share on antibiotic plates over drug-free plates; higher = less susceptible
Conditions: antibiotic: carbenicillin; 2× MIC (3.1 µg/mL)
Procedure: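 A pool of E. coli strains, each edited to carry one amino-acid change in an essential protein, was grown for 48 h on minimal glucose agar with or without antibiotic; strain barcodes were sequenced; mean of two replicates.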

**Q.** Which “fold change of barcode share” value does the source give for B1 here?
**A.** Its value is 0.322 ± 0.11.

**Q.** B2 was tested. Which “fold change of barcode share” value did it give?
**A.** The value was 0.103 ± 0.0023.

**Q.** B3 was tested. Which “fold change of barcode share” value did it give?
**A.** The value was 0.299 ± 0.058.

**Q.** For B4, which “fold change of barcode share” value is on record?
**A.** The value was 0.563 ± 0.43.

**Q.** Which “fold change of barcode share” value does the source give for B5 here?
**A.** The value was 0.295 ± 0.061.

Same assay, conditions: antibiotic: gentamicin; 2× MIC (MIC 0.45 µg/mL)

**Q.** For B1, which “fold change of barcode share” value is on record?
**A.** Its value is 0.0205 ± 0.011.

**Q.** Which “fold change of barcode share” value does the source give for B2 here?
**A.** The value was 0.0234 ± 0.029.

**Q.** Which “fold change of barcode share” value does the source give for B3 here?
**A.** The value was under 0.00924.

**Q.** For B4, which “fold change of barcode share” value is on record?
**A.** Its value is 0.0126 ± 0.0081.

**Q.** For B5, which “fold change of barcode share” value is on record?
**A.** Its value is under 0.00865.
